Data from the supplement of paper PMC3334620.
The full ranking holds about 33,000 sequences; the median of “E-score (-0.5 to 0.5)” is about -0.04, and the highest 2% start at about 0.36. The list shows a part of the results.

Target: T1, Hmlalpha2 (UniProt P0CY09)
T1 sequence: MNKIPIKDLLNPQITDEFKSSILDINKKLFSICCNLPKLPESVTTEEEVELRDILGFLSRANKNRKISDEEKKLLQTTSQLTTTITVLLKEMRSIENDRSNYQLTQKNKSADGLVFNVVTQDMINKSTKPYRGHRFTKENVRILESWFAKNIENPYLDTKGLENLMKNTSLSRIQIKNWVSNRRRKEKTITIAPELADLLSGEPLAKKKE
Test: PBM E-score (8-mer binding enrichment) (E-score (-0.5 to 0.5)); higher = stronger / more preferred TF binding; most listed sequences are background and not binding sites
Conditions: protein concentration: 200 nM; construct: GST-full length
Experimental: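 Universal 'all 10-mer' protein binding microarrays (Agilent AMADID 015681) probed with GST-tagged S. cerevisiae TFs (full-length or DBD) made by in vitro transcription/translation (PURExpress), about 100-200 nM. Bound TF was detected with fluorescent anti-GST. Each ungapped 8-mer (which stands for itself and its reverse complement) is scored by the PBM enrichment score (E-score), a modified Wilcoxon-Mann-Whitney statistic from -0.5 to +0.5, computed with the Universal PBM Analysis Suite. Scale: above 0.35 generally sequence-specific binding.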

Sequence | PBM E-score
CCAACAAG | 0.11
GTAATGTA | 0.413
CCTGGTAC | 0.029
AGTGGTCC | -0.169
AGGCTACC | -0.131
CAGTACGG | 0.0414
ATGTTTTG | 0.327
GCTTGCCC | -0.351
GCGTCAGC | -0.112
CGCTATAC | 0.001
GTACCGTA | -0.021
CTCTATCA | -0.141
GGAAAACA | 0.254
GATTGGGC | -0.133
ACTGACCT | -0.157
CAAACGTA | 0.206
CGATAAAC | -0.0169
GTCTCAGA | -0.137
ATAACGAC | 0.0566
CCAACGAC | -0.114
ACCAGACC | -0.0452
GATTAATA | 0.0807
TAAAACAA | 0.319
GGGGAATA | -0.0617
ACCTCCGG | -0.124

Sequence | PBM E-score
AGAATCCA | -0.0964
CGACTCGC | -0.221
GATTAGTA | 0.168
GTATGTTA | 0.414
AAGATATT | -0.0657
GAGAATTA | 0.0645
ACGGTGTC | -0.156
GACCGCTC | -0.152
CTCTCCAG | -0.357
AGCTCCCC | -0.323
ACATATGT | 0.369
CGATCTGA | -0.181
ACAGCGGC | -0.132
CCCTACAG | -0.297
GATTCAGA | -0.0122
ATCTTCAC | -0.0287
ACGCTTCA | 0.0298
CCGGCTTA | -0.0332
AAACCCGT | 0.0829
GACCCTGA | -0.21
AAACCGCA | -0.136
AGTAGGTG | -0.0396
TCGGGACA | -0.217
CATCTATC | -0.161
CCCGGTTC | -0.22

Sequence | PBM E-score
CACGTTCA | 0.179
AGGACAAA | 0.12
GCGCGATA | 0.0473
TGCAGAAA | 0.148
ATTGAGTC | 0.00655
AGTTGTCC | -0.0713
GTCTACGA | -0.217
GTCTAACA | 0.218
CGGAACGA | 0.0232
AAATTGCA | -0.0487
CCAAACAC | 0.124
GCGTGGGA | -0.0491
AATACCAG | 0.0615
AACCGCTG | -0.07
GCATTCTA | 0.0937
CACCCCCA | -0.115
AAAGCACG | 0.0653
CGAAAGGA | -0.177
AAAGCGAG | 0.107
AAGACCTG | -0.155
CTAGCTGA | -0.115
TGCGGGAA | -0.136
AGTTATCC | -0.0296
GAAATTGA | 0.00035
GCTCAACC | -0.147

Sequence | PBM E-score
AAGAGAAA | -0.0614
AGTAAGAA | 0.197
ACGTGTCC | -0.113
CAGCCGTA | -0.0299
ATGGCGAG | -0.15
ACGTACGA | 0.00093
CACGATGA | 0.163
AGCCCGTG | -0.229
AGTATGGA | -0.154
GTTAAAGA | 0.222
AATCAGGC | -0.112
GATTGAGC | 0.00679
ACCCTCCT | -0.286
CAGTAGCA | -0.00876
GGTGCAAA | -0.15
ATACCAGA | -0.0298
ACCAGACG | -0.0525
GGGCCGGA | -0.421
ACGAGGCC | -0.274
AACGGGGG | -0.238
ACTTCCAC | -0.0314
GCTTTCAC | 0.0724
ATGGTGTG | 0.219
CCGAAGCG | -0.227
AAGGGAAA | 0.029

Sequence | PBM E-score
ATCCAACA | 0.177
CCTGTATC | -0.0207
GCCGAGTA | -0.0684
CATACTAG | 0.127
ATGTTGCG | 0.287
AGGTACCA | -0.0442
AGATCAAC | 0.25
ATCTAAGC | -0.0877
ACCGGTGA | -0.193
CACCCCCG | -0.231
AGGTTTTG | -0.0712
CCCACACG | -0.00838
CCATTACG | 0.13
ATCTACCC | -0.0961
GCCCTCCA | -0.218
ACAACTGA | 0.137
ACAACTCT | 0.0945
ACTGTGCG | 0.0676
ACCTCCGA | -0.123
ATTGTGTG | 0.112
AGAGTATC | 0.0367
GGATGGCA | -0.0636
AAGGGACA | -0.101
TACGTATA | 0.327
GGCTTACA | 0.249

Sequence | PBM E-score
GGGGCGAA | -0.241
AACACAAC | 0.409
AAAGCAAT | 0.277
GAAGCTAC | 0.114
AAATACCA | 0.121
TGTCCTAA | 0.0658
GAGCCGGA | -0.186
AGCAAGGG | -0.0619
CTTTGTAA | 0.414
AAAGAACG | 0.0872
AACGTACC | -0.0493
ACCATTCC | -0.177
ACGGACAG | -0.0708
CGTAGGGA | 0.00608
AACTCAGC | 0.0157
CAATGAAA | -0.05
CGTTGGAA | 0.0703
AGTAACCG | 0.0406
CCTCCCCA | -0.233
AACATTGC | 0.191
AAGCAAAC | 0.134
AGGATGGG | -0.239
AAGCTTCT | -0.0885
AGTTTTCA | 0.0311
ATAGTGTA | 0.106

Sequence | PBM E-score
GGGATACC | -0.275
CACAAGAA | 0.24
GATACCAC | -0.0128
ACGAGCTC | -0.045
TGTCTGAA | 0.0998
ACGCGAGT | 0.185
CATAGCAG | -0.0586
GGTCGACA | 0.0251
AGGTCTAG | -0.167
AGATATAG | 0.0882
CTCACGGA | -0.219
ATTGGGAC | -0.202
ACACTGCC | 0.154
ACAGAGGG | -0.11
ATTGTATC | 0.158
CCCCAGGC | -0.353
ATCAACCG | -0.109
ATAATTAT | 0.25
CCTCTACC | -0.22
CTTGTGCC | -0.262
ATAAATGC | -0.0384
ACCTTTCT | 0.0694
